Results: PubChem BioAssay AID624417 (National Center for Advancing Translational Sciences (NCATS), 2012)
The whole screen tested about 410,000 compounds, of which about 6,400 (1.6%) were called active. The shares of active, inactive and inconclusive entries below differ from those in the screen. Calls come from the whole dose curve; as a rule, active = well fitted inhibition curve with a large enough effect; inconclusive = small, poorly fitted or top-dose-only effect; inactive = no such curve, though single readings can be large or run the other way. Potencies of inconclusive entries are left out as doubtful fits.

Target: Glucagon-like peptide 1 receptor (Homo sapiens) (UniProt P43220)
Experiment: qHTS of GLP-1 Receptor Inverse Agonists (Inhibition Mode); note: nearly all actives have a fitted effect of over 55% in size
Conditions: HEK293 GLP-1R CRE-luciferase, luminescence, 24 h, GLP-1R form is constitutively active; activity change, negative = inhibition: at 38.3 µM (top of the series) unless noted
Procedure, shortened: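 Inverse agonists were sought by their lowering of basal cAMP reporter luciferase output in HEK293 cells stably carrying constitutively active human GLP-1R, after 24 h compound treatment.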
% is set by controls: 0 for no effect and ±100 for the full control effect; potency is the fitted concentration of half-maximal effect; tags give direction and shape of the fitted curve.

Chain of UniProt P43220 (P43220 whole entry, looked up): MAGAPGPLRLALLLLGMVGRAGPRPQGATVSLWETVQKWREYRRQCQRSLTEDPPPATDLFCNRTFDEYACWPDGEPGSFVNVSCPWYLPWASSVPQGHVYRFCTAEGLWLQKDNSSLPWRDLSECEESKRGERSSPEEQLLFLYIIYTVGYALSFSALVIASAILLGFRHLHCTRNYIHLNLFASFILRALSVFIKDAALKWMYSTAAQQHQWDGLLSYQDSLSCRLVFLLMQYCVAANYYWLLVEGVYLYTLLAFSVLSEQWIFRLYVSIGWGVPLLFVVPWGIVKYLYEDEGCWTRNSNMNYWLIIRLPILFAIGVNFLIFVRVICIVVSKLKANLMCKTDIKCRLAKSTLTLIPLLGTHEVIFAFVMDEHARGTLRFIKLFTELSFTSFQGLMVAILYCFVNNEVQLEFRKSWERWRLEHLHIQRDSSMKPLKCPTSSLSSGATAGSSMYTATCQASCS

| SMILES | Potency | activity change, negative = inhibition |
| --- | --- | --- |
| O=C1NC[C@H](Cc2ccccc2)N(C[C@@H]2CCCN2C[C@H](Cc2ccccc2)N2C[C@H](Cc3ccccc3)N(CC3CCCCC3)C(=O)C2=O)C1=O | inconclusive [inhibitor, single point] |  |
| CC(C)(CN1CCC(Cc2ccccc2)CC1)NS(=O)(=O)c1ccccc1 | inconclusive [inhibitor, partial curve, poor fit] |  |
| O=C(Nc1ccc(F)cc1)C1CCN(S(=O)(=O)c2ccc3[nH]c(=O)oc3c2)CC1 |  | inactive: 9.17% |
| O=C1CCCN1CCCN1CC(C(=O)N(CCO)Cc2ccccc2)CCC1=O (centres undefined) |  | inactive: 12.7% |
| CCC[C@@H](CNC)NC[C@H](Cc1ccccc1)NCCCCc1ccccc1 | inconclusive [inhibitor, single point] |  |
| CC1(C)CC(N2CCN(Cc3ccccc3)CC2)=CC(=[N+]2CCCCC2)C1 | inconclusive [inhibitor, partial curve, poor fit] |  |
| O=C1CN(C(=S)NC(=O)c2ccc(-c3ccccc3)cc2)CCN1 |  | inactive: 8.33% |
| O=C(CCc1nnc(C2CCCCC2)o1)N1CCC(Oc2cccnc2)CC1 | inconclusive [inhibitor, single point] |  |
| CCOC(=O)c1c(NC(=O)C(Sc2ccccc2)c2ccccc2)sc(C(=O)N(C)C)c1C (centres undefined) | inconclusive [inhibitor, partial curve, poor fit] |  |
| Cc1cc(-c2csc(NC(=O)c3ccc(=O)[nH]c3)n2)c(C)n1Cc1ccco1 | inconclusive [inhibitor, full curve, poor fit] |  |
| O=C(Nc1ccccc1)C1=C[C@@H](c2ccc(Br)cc2)C[C@@H](OCc2ccc(CO)cc2)O1 | inconclusive [inhibitor, single point] |  |
| COc1ccccc1Cn1c(=O)oc2ccccc21 |  | inactive: -7.98% |
| Cc1ccc(-c2cc(N)n(-c3ccc(F)cc3)n2)cc1 |  | inactive: 8.28% [at 0.307 µM] |
| Oc1ccc2c(c1)oc1cc(O)ccc12 |  | inactive: 185% |
| O=C(N/N=C/c1cccc([N+](=O)[O-])c1O)c1cccs1 | inconclusive [inhibitor, full curve, poor fit] |  |
| Cc1ccc(C(=O)N/C(=C\c2cccs2)C(=O)NC2CCCCC2)cc1 |  | inactive: -28.2% |
| Cc1c(NC(=O)c2cc(-c3ccccc3)nc3ccccc23)c(=O)n(-c2ccccc2)n1C | inconclusive [inhibitor, full curve] |  |
| CC1(C)Oc2ccc3ccc(=O)oc3c2[C@@H](O)[C@@H]1O |  | inactive: 10.4% |
| CCOC(=O)C1=C(C)NC2=C(C(=O)c3ccccc32)C1c1cccc2ccccc12 (centres undefined) | inconclusive [inhibitor, partial curve, poor fit] |  |
| O=C(N[C@H]1CCC(=O)N(CCSc2ccc(Br)cc2)CC1)OCc1ccccc1 | inconclusive [inhibitor, partial curve, poor fit] |  |

| SMILES | Potency | activity change, negative = inhibition |
| --- | --- | --- |
| COc1ccc(S(=O)(=O)N2CCN(c3ccccc3)CC2)cc1OC |  | inactive: -2.55% |
| COc1ccc(N(C)C(=O)c2cn(C3CCCCC3)c(=O)c3c2c2ccccc2n3C)cc1 | inconclusive [inhibitor, single point] |  |
| CCCCCCn1c(=O)n2n(c1=O)[C@@H]1CN(S(=O)(=O)c3ccc(C)cc3)C[C@]1(O)[C@@H](OC(=O)Nc1cccs1)C2 | inconclusive [inhibitor, partial curve, poor fit] |  |
| O=c1cc(-c2ccccc2Cl)oc2c([N+](=O)[O-])c(O)cc(O)c12 | inconclusive [inhibitor, full curve, poor fit] |  |
| Cc1ccc(S(=O)(=O)N2CCN(C(=O)CC(C)n3nc(C)c(Cl)c3C)CC2)cc1C (centres undefined) | inconclusive [inhibitor, single point] |  |
| Cc1ccccc1-c1nnc(SCc2ccccc2)o1 | inconclusive [inhibitor, single point] |  |
| O=C(c1ccoc1)N1CCN(c2cc(-c3ccco3)nc3cc(-c4ccccc4)nn23)CC1 | inconclusive [inhibitor, single point] |  |
| COc1ccc(-c2csc3ncnc(N4CCN(c5ccccc5O)CC4)c23)cc1 | inconclusive [inhibitor, partial curve, poor fit] |  |
| COC(CNC(=O)CCc1c(C)nc2c(c(C)nn2-c2ccc(C)cc2)c1C)OC | inconclusive [inhibitor, single point] |  |
| O=C(Nc1ccccc1N1CCCC1)C1CCN(S(=O)(=O)c2ccccc2)CC1 | inconclusive [inhibitor, single point] |  |
| COc1ccc(Br)cc1CN(C)C(C)C(=O)Nc1cccc(C(C)=O)c1 (centres undefined) | inconclusive [inhibitor, single point] |  |
| Nc1sc(-c2ccccc2)cc1C(=O)NCCc1ccc(Cl)cc1 | inconclusive [inhibitor, partial curve, poor fit] |  |
| CC[C@@]12C(=O)N(c3cccc(Br)c3)C(=O)N1[C@H](c1ccc(F)cc1)[C@@H]1C(=O)N(C3CCCCC3)C(=O)[C@@H]12 | active: 8.91 µM |  |
| CCn1ccc2cc(S(=O)(=O)N3CCCN(C(=O)Nc4cccc(Cl)c4)CC3)ccc21 | inconclusive [inhibitor, single point] |  |
| Cc1ccc(NC(=O)NCCc2c(C)nn(C)c2C)cc1Cl | inconclusive [inhibitor, partial curve, poor fit] |  |
| CCCCc1cc(=O)oc2cc(OCC(=O)NC3CCN(Cc4ccccc4)CC3)ccc12 |  | inactive: 1.44% |
| Cn1c(=O)[nH]c(=O)c2c1nc([N+](=O)[O-])n2Cc1ccccc1 | inconclusive [inhibitor, single point] |  |
| COc1ccc(C[C@H]2CN3C(=NC[C@@H]3Cc3ccccc3)N2CCNC(=O)CCC2CCCCC2)cc1 | inconclusive [inhibitor, single point] |  |
| Cc1ccc(OCC(=O)NC(C)c2ccccc2)cc1C (centres undefined) | inconclusive [inhibitor, partial curve, poor fit] |  |
